In all, about 150,000 compounds went through this assay and about 540 (0.36%) showed an effect of 50% or more. This is one part of the list.

These results are taken from ChEMBL document CHEMBL4888484, “Replenishing the malaria drug discovery pipeline: Screening and hit evaluation of the MMV Hit Generation Library 1 (HGL1) against asexual blood stage Plasmodium falciparum ,using a nano luciferase reporter read-out” (2022).

The assay deals with Plasmodium falciparum. The assay is described as follows: Primary screen in NF54 nanoGlo assay, in single point, at 2uM, 72h; a lower Z score goes with more inhibition. Type of assay: functional, Erythrocyte. The following applies: timepoint 72 hour.
As usually defined, the % Inhibition is the relative decrease from the control value, in per cent. Take `CCOC1CC(NS(=O)(=O)c2ccc(N(C)C(C)=O)cc2)C1OC` (stereo not drawn): the “% Inhibition” value is 36% and the Z score is on record as -3.23.
The corresponding values for `CCC(CC)N1C[C@@H](C(=O)N(C)c2ncc(OC)cn2)CC1=O` are 9% and -1.11.
The corresponding values for `Cc1ccc(CNC(=O)Nc2nnc(N3CCC[C@H](C)C3)s2)cc1` are -7% and 1.05.
The corresponding values for `Cc1cccc(NC(=O)[C@H]2CCCN(S(=O)(=O)c3c[nH]c(C(=O)N4CCCC4)c3)C2)c1C` are -18% and 1.84.
For `O=C(Cc1ccccc1F)N1CC(n2cnnc2C2CCOCC2)C1`, the “% Inhibition” value is on record as 39% and the Z score is -5.27.
The corresponding values for `Cc1noc(C)c1CC(=O)Nc1c(N2CCCC2)nn(C)c1C` are -11% and 2.05.
For `CC(C)NC(=O)N1CCC(c2nnc(-c3ccc(F)cc3)o2)CC1`, in that order: -5% and 1.07.
As for `COc1cc(NC(=O)c2ccc(Oc3nccnc3N3CCC(C)CC3)cc2)cc(OC)c1`, the “% Inhibition” value amounted to 24% and the Z score is on record as -3.75.
As for `OC(c1ccc(Br)cc1)C1CCCNC1` (stereo not drawn), the “% Inhibition” value is listed as -4% and the Z score was 0.43.
With `O=C(c1coc(COc2cccc3cccnc23)n1)N1CCCO1`, the “% Inhibition” value was -16% and the Z score is on record as 2.3.
For `COc1cc(NS(=O)(=O)C(C)C)c(S(=O)(=O)Cl)cc1S(=O)(=O)Cl`, in that order: 4% and -0.47.
For `COc1ccc(NC(=O)c2ccc(NCc3ccon3)cc2)cc1`, in that order: 8% and -1.19.
For the compound `CN(C)S(=O)(=O)Nc1cc(Br)c(F)cc1F`, the “% Inhibition” value is given as 2% and the Z score is -0.44.
The corresponding values for `CCCN1CCC(Nc2cc(-c3ccncc3)nc3ccnn23)CC1` are 8% and -1.44.
The corresponding values for `COc1ccc(S(=O)(=O)N[C@H]2CO[C@@H](CN3CCC(F)(F)CC3)[C@@H]2O)cc1` are -3% and 0.43.
For the compound `CC1CN(C(=O)CCc2nc(-c3ccsc3)no2)C(C)CO1` (stereo not drawn), the “% Inhibition” value is given as -19% and the Z score came to 3.63.
The corresponding values for `O=C(NC1CCN(C2CC2)CC1)c1ccc2c(c1)C(=O)N(CCc1ccccc1)C2=O` are -13% and 1.46.
Consider `N[C@@H]1CCN(C(=O)c2cccnc2Oc2cccc(Br)c2)C1`, for which the “% Inhibition” value is listed as -12% and the Z score is listed as 1.38.
For `CCc1nnc2c(S(=O)(=O)N(Cc3cc(F)cc(F)c3)c3ccccc3)cccn12`, in that order: -30% and 3.87.
The corresponding values for `O=C(NCC1CCN(C(=O)c2ccoc2)CC1)c1ccccc1Cl` are -6% and 0.91.
On to `CC(C)(C)c1ccc(-c2nc(Nc3cccc(C(=O)O)c3)c3ccccc3n2)cc1`, for which the “% Inhibition” value was -11% and the Z score is on record as 1.7.
For `COc1cccc2cc(C(=O)N3CCC(C(=O)NCc4nc(C)no4)CC3)oc12`, in that order: -3% and 0.42.
For `CN(C)c1ccc(Nc2c(-c3cccs3)nc3ccccn23)cc1`, in that order: -29% and 3.41.
The corresponding values for `CC1CN(S(=O)(=O)N(CC2CC2)CC2CC2)C(C)CO1` (stereo not drawn) are -3% and 0.37.
Take `O=C(NC1CCc2[nH]cnc2C1)N[C@@H]1CCCc2ccccc21` (stereo partly drawn): the “% Inhibition” value worked out at 4% and the Z score is given as -0.51.
For `COc1ccnc(C(=O)N2CCOC3CCCCC32)c1` (stereo not drawn), in that order: -7% and 0.83.
The corresponding values for `CN(C)S(=O)(=O)N1C[C@H]2CC[C@@H](C1)N(C(=O)c1cccnc1)C2` are -7% and 1.
Regarding `Cc1ccncc1C(=O)Nc1cccc(C(=O)Nc2c(C)cccc2C)c1`, the “% Inhibition” value was -14% and the Z score worked out at 1.76.
For `N#CC1(C(=O)N2CCCc3ccccc32)CCCC1`, in that order: -14% and 2.22.
The corresponding values for `COC(=O)N[C@@H](C)C(=O)NCCc1ncnn1C` are 1% and -0.12.
For `O=C(COc1ccc(Cl)cc1)Nc1ccc(N2CCOCC2)nc1`, in that order: -11% and 1.24.
On to `Cc1ccc(NCCCNC(=O)c2cnc3c(c2)CCCC3)nc1`, for which the “% Inhibition” value is given as -12% and the Z score amounted to 2.44.
The corresponding values for `Cc1noc(C2CCN(C(=O)NCC3CCOC(C(C)C)C3)C2)n1` (stereo not drawn) are -2% and 0.33.
The corresponding values for `Fc1ccccc1CO[C@H]1CCCNC1` are 1% and -0.12.
The corresponding values for `CC(C)Cc1cn(C2CCN(C(=O)Nc3ccc4c(c3)OCO4)CC2)nn1` are 2% and -0.44.
In the case of `O=C1CCCc2cc(C(=O)NCc3nc(-c4ccco4)n[nH]3)ccc2N1`, the “% Inhibition” value is given as 2% and the Z score is given as -0.25.
For `CCN1CCC[C@@H]1Cn1cc(-c2ccc(NC(C)=O)cc2)nn1`, in that order: 1% and -0.23.
The corresponding values for `Cc1ccc(NC(=O)Cn2cnc(-c3nc(-c4ccccc4)cs3)c2)cc1F` are 2% and -0.31.
The corresponding values for `Cc1ccc(-c2noc(-c3nc(C(C)C)no3)n2)cc1` are -15% and 1.35.
Take `COc1ccc(CN2CCc3nc(N4CCCC4)ncc3C2)c(OC)c1`: the “% Inhibition” value is reported as 3% and the Z score is on record as -0.45.
For `COc1c[nH]c(C(=O)NCc2ccc3nsnc3c2)cc1=O`, in that order: -1% and 0.1.
Regarding `O=c1ccn(-c2ccc(F)c(F)c2)nc1-c1nc(-c2ccc(Cl)c(F)c2)no1`, the “% Inhibition” value worked out at 11% and the Z score is reported as -1.78.
The corresponding values for `Cc1oc(C)c(C(=O)N2CC3CCCC3C2)c1C` (stereo not drawn) are -7% and 0.95.
The corresponding values for `NC[C@H]1CCN(C(=O)c2ccc(-c3ccc(Cl)cc3)cc2F)C1` are 8% and -1.03.
For `Cc1cc(CNS(=O)(=O)c2cnn(C)c2)c(C)o1`, in that order: -14% and 2.23.
Regarding `Cn1cnc(NC(=O)c2cccc(CN3CC[C@@H]4CCCC[C@H]4C3)c2)n1`, the “% Inhibition” value is -4% and the Z score was determined as 0.56.
The corresponding values for `c1n[nH]cc1CNc1cncc2c1CCCC2` are -1% and 0.23.
Take `C[C@@H]1CN(Cc2cc(F)cc(C(F)(F)F)c2)CC(C(N)=O)O1` (stereo partly drawn): the “% Inhibition” value is reported as -11% and the Z score is given as 1.61.
The corresponding values for `Cn1cc([C@@H](c2sc3ncnn3c2O)N2CCOCC2)cn1` are 26% and -2.9.
For `CCCN1C=NS(=O)(=O)c2cc(C(=O)Nc3c(C)cc(C)cc3C)ccc21`, the “% Inhibition” value is on record as -2% and the Z score came out at 0.25.
For `Cc1ccc2c(c1C)N(C(=O)c1ccc(C3OCCO3)cc1)CCC2`, in that order: 2% and -0.24.
With `O=C1CCCC(=O)N1CCS(=O)(=O)NCc1cnn2c1CCCC2`, the “% Inhibition” value is reported as -6% and the Z score was determined as 1.21.
For `Cc1n[nH]c(C)c1S(=O)(=O)N1CC(C)NC(C)C1` (stereo not drawn), in that order: -1% and 0.11.
The corresponding values for `C[C@H](NC(=O)[C@H]1CC[C@H](CNS(=O)(=O)c2ccccc2)CC1)C(=O)N1CCN(CCO)CC1` are -11% and 1.22.
